Screen size: about 350,000 compounds; about 31,000 (8.9%) were called active. The inconclusive results got no clear call from the source; some entries with a clear call stand among them for comparison. The call rests on the fitted dose curve; in most records, active means well fitted inhibition curve with a large enough effect; inconclusive means small, poorly fitted or top-dose-only effect; inactive means no such curve, though single readings can be large or run the other way. Potencies beside an inconclusive call are fits to weak or partial responses and may not hold up.
molecular target: Histone-lysine N-methyltransferase EHMT2 (Homo sapiens) (UniProt Q96KQ7); assay: qHTS Assay for Inhibitors of Histone Lysine Methyltransferase G9a; settings: G9a H3K9 monomethylation, AlphaScreen, 2 h; activity, negative = inhibition: at 59 µM (top of the series) unless noted; further: nearly all actives have a fitted effect of over 75% in size
Method in brief: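 Readings reflect AlphaScreen signal from monomethyl-H3K9 antibody detection. HMT at 20 nM; substrate b-H3K9 500 nM; cofactor SAM 20 uM; 2 h RT reaction; compounds tested as titrations in qHTS with 15 min preincubation.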
On the % scale 0 is the no-effect control and ±100 the full control effect; potency means the concentration at half of the fitted maximal effect; tags describe the fitted curve by direction and shape.

Sequence of UniProt Q96KQ7 (Q96KQ7 whole entry, looked up): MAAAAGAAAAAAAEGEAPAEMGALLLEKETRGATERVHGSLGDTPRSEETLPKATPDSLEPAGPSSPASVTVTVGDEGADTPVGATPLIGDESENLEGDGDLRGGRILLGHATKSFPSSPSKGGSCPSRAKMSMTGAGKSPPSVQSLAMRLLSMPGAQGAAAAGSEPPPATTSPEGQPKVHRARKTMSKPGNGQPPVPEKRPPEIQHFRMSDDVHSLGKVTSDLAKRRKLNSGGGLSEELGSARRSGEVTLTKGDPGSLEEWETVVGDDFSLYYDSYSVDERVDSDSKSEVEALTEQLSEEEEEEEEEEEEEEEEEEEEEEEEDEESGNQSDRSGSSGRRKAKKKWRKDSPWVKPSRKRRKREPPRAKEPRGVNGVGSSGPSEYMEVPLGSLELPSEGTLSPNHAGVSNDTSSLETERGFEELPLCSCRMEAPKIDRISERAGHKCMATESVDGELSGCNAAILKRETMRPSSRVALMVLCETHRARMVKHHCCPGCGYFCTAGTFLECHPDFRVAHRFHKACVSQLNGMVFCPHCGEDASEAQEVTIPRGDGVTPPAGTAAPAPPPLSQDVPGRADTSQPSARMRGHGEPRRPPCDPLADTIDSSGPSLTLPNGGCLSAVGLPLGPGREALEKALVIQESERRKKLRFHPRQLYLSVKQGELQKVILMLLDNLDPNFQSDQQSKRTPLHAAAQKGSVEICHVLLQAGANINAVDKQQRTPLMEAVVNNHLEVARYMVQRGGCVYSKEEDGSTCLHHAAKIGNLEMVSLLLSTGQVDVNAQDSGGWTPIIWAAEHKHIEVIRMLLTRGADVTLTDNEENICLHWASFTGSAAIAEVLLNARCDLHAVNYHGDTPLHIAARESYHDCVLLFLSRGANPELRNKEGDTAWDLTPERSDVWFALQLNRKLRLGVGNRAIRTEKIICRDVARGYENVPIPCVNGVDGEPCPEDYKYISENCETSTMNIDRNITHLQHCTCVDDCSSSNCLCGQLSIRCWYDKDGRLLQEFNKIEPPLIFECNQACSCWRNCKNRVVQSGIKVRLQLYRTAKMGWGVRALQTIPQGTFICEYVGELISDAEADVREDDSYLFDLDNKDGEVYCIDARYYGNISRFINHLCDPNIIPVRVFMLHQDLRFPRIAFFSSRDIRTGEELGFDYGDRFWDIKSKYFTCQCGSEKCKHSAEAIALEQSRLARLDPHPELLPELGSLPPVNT

Compound	Potency	activity, negative = inhibition
CC(=O)c1c(C)nc(-c2ccc(Cl)cc2Cl)n1O	inconclusive: 39.8 µM [inhibitor, single point]	
COC(=O)c1sc2nc(C)nc(SCC(=O)N3CCC(C(=O)O)CC3)c2c1C	inconclusive: 50.1 µM [inhibitor, partial curve, poor fit]	
O=C(c1ccc(S(=O)(=O)c2cccc(Cl)c2)c([N+](=O)[O-])c1)N1CCN(Cc2ccccc2)CC1	inconclusive: 28.2 µM [inhibitor, single point]	
Cc1ccc(S(=O)(=O)N2CCCCC2C(=O)NCc2ccco2)cc1 (stereo not given)	active: 28.2 µM	
CCN1CCN(c2ncnc3c2c(-c2ccccc2)cn3-c2ccc(F)cc2)CC1	inconclusive: 35.5 µM [inhibitor, single point]	
Cn1ncc(Cl)c1C(=O)Nc1cccc(Cl)c1	active: 2.82 µM	
CCNc1nc(Oc2ccc(C(=O)OC)cc2)nc(N(C)C)n1	inactive	
CN1CCN(C(=O)c2cc(Cl)ccc2Cl)CC1	inactive	
CN(C)/C=C/C(=O)c1cnc(-c2ccccn2)s1	inactive	
COc1ccc(C2=Nn3c(nnc3-c3ccncc3)SC2)cc1	inconclusive: 79.4 µM [inhibitor, partial curve, poor fit]	
C(=C\c1ccccc1)/CN1CCN(c2ncnc3c2oc2ccccc23)CC1	inconclusive: 25.1 µM [inhibitor, single point]	
COc1ccc(NC(=O)c2cc3c(s2)CCC3)cc1S(=O)(=O)N1CCOCC1	inconclusive: 4.47 µM [inhibitor, full curve, poor fit]	
CCCCOCCCNCc1cccn1CCN1CCOCC1	inconclusive: 28.2 µM [inhibitor, full curve, poor fit]	
O=[N+]([O-])c1ccccc1NCc1ccc(Cl)cc1	inconclusive: 1.26 µM [inhibitor, full curve, poor fit]	
COc1ccccc1NC(=O)NCC(=O)Nc1c(C)cccc1C	inactive	
CN(C)c1ccc(N2C(=O)CC(Sc3ccccc3C(=O)O)C2=O)cc1 (stereo not given)	active: 1.41 µM	
Cn1c(=O)c2c(-c3ccc(Br)cc3)n(CCc3ccccc3)cc2n(C)c1=O	inconclusive: 35.5 µM [inhibitor, partial curve, poor fit]	
O=C(Cc1ccc(-n2c(=O)c3sccc3n(Cc3ccc(F)cc3)c2=O)cc1)NCc1ccco1	inconclusive: 89.1 µM [inhibitor, single point]	
CC1(C)CC(=O)C=C(NC2CCCC(O)C2)C1 (stereo not given)		inactive: 9.59% [at 2.33 µM]
COc1ccc(Cl)cc1NC(=O)c1cccc(NC(=O)CCC(=O)O)c1	inconclusive: 25.1 µM [inhibitor, single point]	
CCc1cccc(C)c1NC(=O)Cn1cc2c(n1)CCCC2	inactive	
NS(=O)(=O)c1ccc(CCNC(=O)NC2(C(F)(F)F)Oc3ccccc3O2)cc1	inconclusive: 28.2 µM [inhibitor, single point]	
CCC1=Nc2cc(C(=O)O)ccc2Sc2ccc(Cl)cc21	inconclusive: 89.1 µM [inhibitor, single point]	

Compound	Potency	activity, negative = inhibition
Nc1ccccc1SCC(=O)Nc1ccc2c(c1)OCO2	inactive	
COc1ccccc1N1CCN(C(=O)c2cc(=O)c3cc(C)cc(C)c3o2)CC1		inactive: -10.5% [at 2.33 µM]
Cc1ccc(NC(=O)c2oc3ccc(S(=O)(=O)N4CCCCC4)cc3c2C)cc1Cl	inactive	
COc1ccccc1N1CCN(C(=O)c2coc(=O)c(Br)c2)CC1	inconclusive: 79.4 µM [inhibitor, partial curve, poor fit]	
Cn1c(CNC(=O)c2ccco2)nnc1SCC(=O)Nc1ccccc1Cl	inactive	
COc1ccc(C(=O)COC(=O)[C@H](C)Nc2ccc(C(F)(F)F)cc2[N+](=O)[O-])c(OC)c1	inconclusive: 56.2 µM [inhibitor, partial curve, poor fit]	
O=C(CSc1ncn[nH]1)N1c2ccccc2Sc2ccccc21	inconclusive: 79.4 µM [inhibitor, partial curve, poor fit]	
CCOC(=O)c1ccc(S(=O)(=O)N2CCN(C(=O)CSc3nc4ccccc4o3)CC2)cc1	inconclusive: 79.4 µM [inhibitor, single point]	
O=C(Nc1ccc2oc(-c3ccncc3)nc2c1)c1ccc(F)cc1	inactive	
CCOCCCNCc1cccc(OC)c1	active: 3.98 µM	
O=C1/C(=C/c2cccnc2)SC(=S)N1Nc1ccccc1	active: 39.8 µM	
COc1ccc(N2CCN(C(=O)C3CCCN(S(=O)(=O)c4ccc5c(c4)oc(=O)n5C)C3)CC2)cc1 (stereo not given)	inconclusive: 25.1 µM [inhibitor, partial curve, poor fit]	
CNC(=O)c1c(NC(=O)C2=COCCO2)sc2c1CCC(C)C2 (stereo not given)	inconclusive: 28.2 µM [inhibitor, partial curve, poor fit]	
O=C(NCCC1CCCCN1S(=O)(=O)c1ccccc1)C(=O)NCc1ccc(F)cc1 (stereo not given)	inconclusive: 79.4 µM [inhibitor, partial curve, poor fit]	
COc1cc(CN2CCN(c3cccc(C)c3C)CC2)cc(OC)c1O	inconclusive: 3.98 µM [inhibitor, single point]	
COc1ccc(C2=NN(C(=O)CSc3nnnn3C)C(c3ccco3)C2)cc1 (stereo not given)	inactive	
CN(C)CCNC(=O)C(=O)Nc1ccc2c(c1)N(S(=O)(=O)c1cccs1)CCC2	inconclusive: 56.2 µM [inhibitor, partial curve, poor fit]	
Cc1nn(CC(=O)O)c2ccccc12	inconclusive: 89.1 µM [inhibitor, single point]	
Cc1ccc(OCC(=O)N/N=C2\CC(=O)CC(C)(C)C2)c(Br)c1	inactive	
CCn1c(CSc2nnc(-c3cccnc3)n2-c2ccccc2C)nc2cc(C(=O)O)ccc21	active: 12.6 µM	
Cc1cccc(CSc2nc3ccncc3n2CC(=O)N(C)C2CCCCC2)c1	inactive	
Fc1ccc(Nc2cccc3nccnc23)cc1	inconclusive: 39.8 µM [inhibitor, single point]	
